Test systems include A101D; A2058; A375.
Common to all, as to experiment: cell count relative to DMSO control; melanoma cells; higher = more viable cells
Common to all, as to conditions: library dose: standard library concentration; 72 h

Molecules are shown by their SMILES. The list shows a part of the results. Most values come without repeats; read them as rough.
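Further: cells treated in 1,536-well plates, then fixed and DAPI-stained, with nuclei counted from automated high-throughput microscope images.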

For `CC1(C)CCC(c2ccc(Cl)cc2)=C(CN2CCN(c3ccc(C(=O)NS(=O)(=O)c4ccc(N[C@H](CCN5CCOCC5)CSc5ccccc5)c(S(=O)(=O)C(F)(F)F)c4)cc3)CC2)C1` + NC1(c2ccc(-c3nc4ccn5c(=O)[nH]nc5c4cc3-c3ccccc3)cc2)CCC1 [MK2206] (first compound 2 µM, partner dose 2 µM), the values for the cell count in the assay on A101D, with A2058 and in the assay on A375 were 32.4%, 78.5% and 54.5%, respectively.
For `Cc1ccc(Nc2nccc(N(C)c3ccc4c(C)n(C)nc4c3)n2)cc1S(N)(=O)=O` [Pazopanib] + CS(=O)(=O)c1ccc(C(=O)Nc2ccc(Cl)c(-c3ccccn3)c2)c(Cl)c1 [vismodegib] (first compound 2 µM, partner dose 5 µM), in that order: 107%, 115% and 102%.
On the same counts, the results for `CC1(C)CCC(c2ccc(Cl)cc2)=C(CN2CCN(c3ccc(C(=O)NS(=O)(=O)c4ccc(N[C@H](CCN5CCOCC5)CSc5ccccc5)c(S(=O)(=O)C(F)(F)F)c4)cc3)CC2)C1` + C=CCn1c(=O)c2cnc(Nc3ccc(N4CCN(C)CC4)cc3)nc2n1-c1cccc(C(C)(C)O)n1 [MK1775] (first compound 2 µM, partner dose 0.1 µM) are 19%, 75.4% and 36.7%.
On the same counts, the results for `CC1(C)CCC(c2ccc(Cl)cc2)=C(CN2CCN(c3ccc(C(=O)NS(=O)(=O)c4ccc(N[C@H](CCN5CCOCC5)CSc5ccccc5)c(S(=O)(=O)C(F)(F)F)c4)cc3)CC2)C1` + C[C@@H]1CCN(C(=O)CC#N)C[C@@H]1N(C)c1ncnc2[nH]ccc12 [CP690550] (first compound 2 µM, partner dose 5 µM) are 59.7%, 103% and 84%.

Source of the values: the supplement of paper PMC4604168 (melanoma cell lines).
